Measurements taken from PubChem BioAssay AID1508624 (National Center for Advancing Translational Sciences (NCATS), 2021).
The whole screen tested about 48,000 compounds, of which about 120 (0.25%) were called active. Not shown: some 4% with an inconclusive outcome. Calls follow the shape of the dose curve; as a rule, active = well fitted activation curve with a large enough effect; inconclusive = small, poorly fitted or top-dose-only effect, or another doubt; inactive = no such curve, though single readings can be large or run the other way. This is one part of the list.

Experiment: Primary qHTS for Identification of Small Molecule Activators of Huntingtin-Antisense Promoter Activity; also: nearly all actives have a fitted effect of over 55% in size
Details: HEK293 HTT-AS promoter firefly luciferase reporter, 24 h; series mostly up to 57.5 µM; activity change, positive = activation: at the top concentration
How it was run: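 Quantitative HTS used concentration series of up to 57.5 uM final on HEK293 luciferase reporter cells, 24 h at 37 degrees C. Readout was Dual-Glo firefly luminescence.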

Activity change, positive = activation, inactive:
COc1ccc(Cn2c(C(=O)O)c(CNCCc3ccco3)c3ccc(C)cc32)cc1 -23.6%, Cc1cc(C(F)F)n2nc(C(=O)Nc3cccc(Cl)c3C)nc2n1 -1.65%, Cc1ccccc1OCC(=O)Nc1ccccc1C(=O)OCc1cc(=O)n2ccsc2n1 -13.2%, Cc1nn(CCCC(=O)NCCc2ccc(Cl)cc2)c(=O)c2c1sc1ccccc12 -26%, Cn1ncc2c(NCc3ccccc3Cl)nc(NCCO)nc21 -14.2%, COc1ccc2c(c1)c1c(c(=O)n(-c3ccccc3)c(=O)n1CC(=O)NCCC1=CCCCC1)n2C -19.2%, O=C(Nc1ccc(-n2nncc2-c2ccccc2)cc1)c1cccc(F)c1 -21.3%, CCOc1ccc(CNC(=O)C2CCN(S(=O)(=O)c3cn(C)cn3)CC2)cc1 -3.34%, O=C(CN1C(=O)CCn2nc(-c3ccccc3)cc21)NCc1ccc(F)cc1 -14%, COc1ccccc1N1CCN(C(=O)c2cn(C)c3ccc(S(=O)(=O)N(C)C4CCCCC4)cc3c2=O)CC1 10.4% [at 11.5 µM, percent change from vehicle, -100% = no light], CCOc1ccc(NC(=O)c2cnn(-c3ccc(C)c(C)c3)c2C2CCN(C(=O)OC(C)(C)C)CC2)cc1 -3.14%, CC1=C(C(=O)Nc2ccccc2)C(c2ccc(C(=O)O)cc2)n2ncnc2N1 (stereo not given) -4.27%, CCOc1ccc(Nc2nc3c(S(=O)(=O)c4cccc(Cl)c4)nnn3c3ccsc23)cc1 -25.2%, CCc1ccc(OCC(=O)N(Cc2ccco2)Cc2ccccc2Cl)cc1 -31.6%, Cc1ccc(NC(=O)CCCn2c(=O)c3cccn3c3ccccc32)c(C)c1 -4.52%, CCOC(=O)c1cnc2c(ccc3ccccc32)c1Nc1cccc(C(F)(F)F)c1 -22.8%, Cc1ccc(C(=O)NCC(c2ccc3c(c2)OCO3)N2CCN(C)CC2)cc1C (stereo not given) -7.4%, CCc1noc(-c2ccc(NCc3ccccc3)c([N+](=O)[O-])c2)n1 14%, CCOC(=O)c1c(C)c(C(=O)NCc2ccc(OC)cc2)c(C)n1CC -10.3%, COc1cccc(C(=O)N(Cc2cccnc2)c2nc3c(OC)ccc(C)c3s2)c1OC -34.2%, O=C(CSc1nc2ccccc2nc1Cc1ccc(Cl)cc1)N1CCCc2ccccc21 -5.05%, CCOc1cc(C2CC(=O)Nc3cc4c(cc32)OCCO4)ccc1O (stereo not given) -26.3%, COC(=O)C(C)Sc1nc2c(cnn2-c2ccc(F)cc2)c(=O)[nH]1 (stereo not given) -4.34%, CCOC(=O)Cn1c(=O)n(C2CCCCC2)c2nc(-c3ccc(CC)cc3)nc(C(N)=O)c21 -15.7%, Cc1nc2ccccc2n2c(-c3ccccc3)c3c(=O)n(C)c(=O)n(C)c3c12 16.1%
